Laboratory results: PubChem BioAssay (NCI)
Values joined by “and” are separate entries in the source; they are usually repeats but may differ in a detail not shown here. Identical values can stand only once.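 Tested at 5 concentrations; 48 h exposure; 96-well plates; endpoints linearly interpolated, else capped at highest concentration. GI50 marks 50% less growth. TGI is the concentration that stops growth completely.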

test system: NCI-H322M lung; assay: inhibition of tumour cell growth, NCI panel, 48 h

| SMILES | TGI | GI50 |
| --- | --- | --- |
| O=C1OC2(c3ccc(O)cc3Oc3cc(O)ccc32)c2c1c(-c1ccccc1)c(-c1ccccc1)c(-c1ccccc1)c2-c1ccccc1 | 55.4 µM | – |
| NC(=O)c1cc(C2OC(CO)C(O)C2O)nn1-c1ccc([N+](=O)[O-])cc1 (centres undefined) | > 100 µM | – |
| O=Cc1ccc2c(c1)CC1(C2)Cc2ccc(C=O)cc2C1 | > 100 µM | – |
| NC(=O)Oc1cc(OC(N)=O)cc(N(CCCl)CCCl)c1 | 65 µM | 21.4 µM |
| O=C(Cn1ccnc1[N+](=O)[O-])NCC(F)(F)C(F)(F)F | > 100 µM | > 100 µM |
| Cc1ccc(C2=NO[C@@H]3C(=O)N(c4ccc(Cc5ccc(N6C(=O)[C@H]7C(c8ccc(C)cc8)=NO[C@H]7C6=O)cc5)cc4)C(=O)[C@H]23)cc1 | > 100 µM | – |
| COc1cc2c(cc1OC)[C@@]1(C)C(=O)c3cc4c(cc3[C@H]1N(C)C2=O)OCO4 | > 100 µM | > 100 µM |
| Cn1cc(C2=C(c3c4n(c5ccccc35)CCC(CN)CC4)C(=O)NC2=O)c2ccccc21 (centres undefined) | 8.45 µM | 3.32 µM |
| O=C(CC(=O)C(F)(F)F)c1csc2ccccc12 | > 100 µM | – |
| Nc1ccn([C@@H]2C=C(CO)[C@@H](O)[C@H]2O)c(=O)n1 | 500 µM and > 625 µM | – |
| O=C(O)CNCc1c2ccccc2[n+]([O-])c2ccccc12 | > 100 µM | – |
| COc1ccc(/C(Cl)=C(\C=O)c2ccc(Cl)c(Cl)c2)cc1OC | 18.4 µM | – |
| Nc1nc(N)c(-c2ccc(Cl)cc2)c(CCC(=O)Nc2cccc(C(F)(F)F)c2)n1 | > 100 µM | – |
| CCOC(=O)Oc1cc2c(ccn2C)c2c1c1ccccc1n2C(=O)OCC | > 100 µM | – |
| CC(=O)OCC1OC(S[As](C)C)C(OC(C)=O)C1OC(C)=O (centres undefined) | 18.5 µM | 5.19 µM |
| O=C(O)CC1(C(=O)O)CCCCC1 | > 100 µM | – |
| CC(C)N1CCCOC(c2ccc([N+](=O)[O-])cc2)O1 (centres undefined) | > 100 µM | – |
| Cc1ccc2[nH]c(=O)c(C(C#N)c3ccccc3)nc2c1 (centres undefined) | > 100 µM | – |
| COC(=O)C1=CC2OC1(C)C1(CC1)C2=O (centres undefined) | > 100 µM | – |
| CC(C)(C)C(=O)Nc1cccc(-c2ccc[nH]2)n1 | > 100 µM | – |
| CCCCCCCCCC(=O)OCC1OC(n2cc(F)c(=O)[nH]c2=O)C(N)C(OC(=O)CCCCCCCCC)C1O (centres undefined) | 40.6 µM | – |
| COc1ccc(/C=C/[N+](=O)[O-])cc1 | 33.4 µM | – |
| CO[C@H]1CC[C@@]2(C)C(=CC[C@H]3[C@@H]4C[C@H](O)C[C@@]4(C)CC[C@@H]32)C1 | 26.7 µM | 12.1 µM |
| N#CC(C#N)=C1CCCCc2ccc([N+](=O)[O-])cc21 | > 100 µM | – |
| O=C(O)CCC1CCC(c2cc(F)ccc2F)(S(=O)(=O)c2ccc(Cl)cc2)CC1 (centres undefined) | > 100 µM | 56.6 µM and > 100 µM |
| COc1ccccc1NC(=O)C1=C(C)NC(C)=C(C(=O)Nc2ccccc2OC)C1c1ccccc1OC | > 100 µM | – |

| SMILES | TGI | GI50 |
| --- | --- | --- |
| CC(C)=CCC[C@@H](C)C1=C(Nc2ccccc2)C(O)=C(C)C(=O)C1=O | > 100 µM | – |
| CNC(=O)CN(CC(N)=O)C(=O)NC | > 100 µM | – |
| COc1cnc2c(c1)C(=O)c1c-2n(CCCN2CCN(C)CC2)c(=O)c2cc(Cl)ccc12 | 25.7 µM | 4.34 µM |
| CCCCCCCCCCCC(=O)OCC1OC(n2cc(F)c(=O)[nH]c2=O)C(N)C(O)C1O (centres undefined) | > 100 µM | – |
| O=C1/C(=C/c2ccccc2)CCCC/C1=C\c1ccccc1 | > 100 µM | – |
| COC(=O)C(Cc1c[nH]c2ccccc12)NP(=O)(O)OCC1OC(n2cc(F)c(=O)[nH]c2=O)CC1O (centres undefined) | > 100 µM | – |
| O=C1/C(=C/C(Cl)=C/c2ccccc2)SC(=S)N1CCc1ccc(O)cc1 | 62.1 µM | 3.55 µM |
| CC1=CCC[C@]2(C)C1=CC(=O)O[C@H]2c1ccoc1 | > 100 µM | – |
| COC(=O)N/N=C(\C)C(CN1CCOCC1)C(c1ccccc1)c1cc2ccccc2oc1=O (centres undefined) | > 100 µM | – |
| O=c1[nH]c(=O)n(C2CC(O)C(CO)O2)c2nc3ccc4ccccc4c3nc12 (centres undefined) | > 100 µM | – |
| CC1C(=O)N(C)C2(CO)C(=O)O[C@H](C)C12O (some centres undefined) | > 100 µM | – |
| Nc1c(Cl)c([N+](=O)[O-])cc2c1OCCCCO2 | > 100 µM | – |
| NC(=S)N/N=C(/C(=O)Nc1nc2ccc([N+](=O)[O-])cc2s1)C1C(=O)NC(=S)NC1=O | > 100 µM | – |
| Cc1ccc(C(=O)NC2CCCCC2)cc1-c1ccc(C(=O)NCC2CC2)cc1 | > 25 µM | > 17.8 µM |
| Nc1ccc(C(=O)NN2C(=O)C(Cl)C2c2ccccc2O)cc1 (centres undefined) | > 100 µM | – |
| CCN(CC)CCOc1cc2c(C(=O)OC)c(C)oc2cc1C(C)=O | 58.7 µM | 15.8 µM |
| COc1ccc(OC)c2cc(C3(C)SCCCS3)ccc12 | > 100 µM | – |
| COc1cc(CCCC(O)COc2cccc3c2C2(O)CCCCCC32)cc(OC)c1 (centres undefined) | 35.3 µM | – |
| COC(=O)c1cc(C#N)[nH]c1-c1cccs1 | > 100 µM | – |
| O=C(/C=C\Sc1nccc(C(F)(F)F)n1)c1ccc(Br)cc1 | > 100 µM | > 100 µM |
| Cn1c2cccc3nnc4cccc(c4c32)n1C | > 100 µM | – |
| CC12CC3CC(C)(C1)CC(N=[N+]=[N-])(C3)C2 | > 100 µM | – |
| CC1(C)OC(=O)CC12CCN(Cc1ccccc1)CC2 | > 100 µM | – |
| CCCCc1ccc(N2C(=O)c3cccnc3S2(=O)=O)cc1 | > 100 µM | – |
| COc1cccc2c1c1nc3cc(C)c(C)cc3nc1n2CCN(C)C | 8.27 µM | 1.97 µM |
| COc1ccc2c(c1)/C(=C\c1cccc(/C=C3/C(=O)Nc4ccc(OC)cc43)n1)C(=O)N2 | 14.3 µM | – |

| SMILES | TGI | GI50 |
| --- | --- | --- |
| CC(C)(CCCCC(C)(C)NCC1COc2ccccc2O1)NCC1COc2ccccc2O1 (centres undefined) | > 10 µM | – |
| O=c1[nH]n(Cc2ccccc2CCl)c2ccc([N+](=O)[O-])cc12 | > 100 µM | – |
| Nc1nncs1 | > 5000 µM | – |
| COc1cc(/C=C2\N=C(c3ccccc3)N(/N=C/c3cc4cc(C)ccc4nc3Cl)C2=O)cc(OC)c1OC | > 100 µM | – |
| COC(=O)C1=CC2OC13CC1CCC3(C2=O)C1(C)C (centres undefined) | 33.6 µM | – |
| Cc1ccnc2c1ccc1nc3ccccc3n12 | > 100 µM | – |
| O=C1CCSc2c(cnc3ccccc23)N1 | > 100 µM | – |
| COc1ccc(F)cc1C(=O)c1cnc(NC2CCN(S(C)(=O)=O)CC2)nc1N | > 18.8 µM | 4.2 µM |
| CN(C)CC1CCn2c(c(C3=C(c4cn(C)c5ccccc45)C(=O)NC3=O)c3ccccc32)C1 (centres undefined) | 8.84 µM | 3.96 µM |
| O=C(O)Cc1[nH]cnc1C(=O)O | > 100 µM | – |
| CN1CCC/C1=C1\C(=O)c2cccn2C1=O | > 100 µM | – |
| CCOC(=O)C1C(c2ccc([N+](=O)[O-])cc2)NC(c2ccc([N+](=O)[O-])cc2)C(C(=O)OC)S1(=O)=O (centres undefined) | > 100 µM | – |
| Clc1ccc(CO/N=C(\Cn2ccnc2)c2ccc(Cl)cc2Cl)c(Cl)c1 | 3.21 µM | 1.79 µM |
| C/C(=C\c1c[nH]c2ccccc12)[N+](=O)[O-] | 27.9 µM | 14.2 µM |
| C=C1CC(COc2ccc3ccc(=O)oc3c2)(c2ccccc2)OC1=O (centres undefined) | 24.3 µM | – |
| C=CC1(c2ccc(Br)cc2)OCCCO1 | > 100 µM | – |
| CC(C)=CCC/C(C)=C/CC/C(=C/COP(=O)(OCc1ccc([N+](=O)[O-])o1)N(C)CCCCCl)C(C)(C)C (centres undefined) | 0.0773 µM | – |
| O=c1[nH]c2ccsc2c(=O)n1COCc1ccccc1 | > 100 µM | – |
| O=S1c2ccc(Cl)cc2CC(SSC2Cc3cc(Cl)ccc3S(=O)c3ccccc32)c2ccccc21 (centres undefined) | > 100 µM | – |
| CSc1ccc(-c2cc(-c3nc4ccccc4[nH]3)nc3[nH]c(-c4nc5ccccc5[nH]4)cc(=O)c23)cc1 | > 100 µM | – |
| C[C@]12CCC(=O)C=C1CC[C@@H]1[C@@H]2CC[C@]2(C)C(=O)/C(=C/c3cccc(OCCN4CCOCC4)c3)C[C@@H]12 | > 100 µM | 52.8 µM |
| Cc1c(CCl)c(=O)oc2c(C)c3occ(CCl)c(=O)c3cc12 | > 100 µM | – |
| COc1cc(C2S/C(=C/c3ccccc3)C(=O)N2c2ccc([N+](=O)[O-])cc2)cc(OC)c1OC (centres undefined) | > 100 µM | – |
| C=CCN(N=O)C(=O)N(CCC)CCCCC(NC(C)=O)C(=O)NCc1ccccc1 (centres undefined) | > 100 µM | – |
| CN=S(=O)(C[C@]1(O)CC2OC1C1OC(C)(C)OC21)c1ccccc1 (some centres undefined) | > 100 µM | – |
| Cc1n[nH]c(=O)n1/N=C/c1cccnc1 | > 100 µM | – |

| SMILES | TGI | GI50 |
| --- | --- | --- |
| Cc1ccc2sc3c(NCCCNCCO)nc4ccccc4c3c(=O)c2c1 | 3.03 µM | 1.65 µM |
| C=C[C@]1(C)C=C2C(=O)[C@@]3(O)OC(=O)[C@@]4(CCCC(C)(C)[C@H]34)[C@@]2(O)CC1 | 18.5 µM | 4.98 µM |
| C/C(=C\c1ccn(-c2ccc(N)cc2)n1)[C@@H]1C[C@@H]2O[C@]2(C)CCC[C@H](C)[C@H](O)[C@@H](C)C(=O)C(C)(C)[C@@H](O)CC(=O)O1 | > 50 µM | 0.0366 µM |
| O=C(O)C(Br)Cc1ccc2c(c1)OCO2 (centres undefined) | > 100 µM | – |
| C/C(=C\COP(=O)(O)OP(=O)(O)O)CC/C=C(\C)CNc1ccc([N+](=O)[O-])cc1 | > 100 µM | – |
| CN(CCC(=O)O)S(=O)(=O)c1ccccc1 | > 100 µM | – |
| C[C@@H]1OC2(O)[C@@H]3CCCN3C(=O)N(Cc3ccccc3)N2C1=O (some centres undefined) | > 100 µM | – |
| COC(=O)/C(C#N)=C(\Nc1ccccc1)N1CCCCC1 | > 100 µM | – |
| O=C1/C(=C/c2ccc(Cl)cc2)CN(C(=O)C(Cl)Cl)C/C1=C\c1ccc(Cl)cc1 | 1.51 µM | 0.398 µM |
| O=C(Nc1ccc(Br)c(Cl)c1)c1cc(F)ccc1O | > 13.7 µM | 0.817 µM |
| C#C[C@@]1(O)[C@@H](CO)O[C@@H](n2cc(F)c3c(N)ncnc32)[C@@H]1O | 4.48 µM | 0.497 µM |
| CC1(C)C2CCC13C(=O)C1OC3(C2)C2C(=O)c3c(O)ccc(O)c3C(=O)C12 (centres undefined) | 98.1 µM | 29.8 µM |
| COc1cc(-c2c(C)c(C)nc(OC)c2C#N)cc(OC)c1OC | > 100 µM | – |
| CC(C)C(Cl)CC/C(CBr)=C(\Cl)CCl (centres undefined) | 29.4 µM | – |
| C(/C=N/NC1=NCCCN1)=N\NC1=NCCCN1 | > 100 µM | – |
| CC1C2=CC=C(O2)C(C)(C)C2=CC=C(O2)C(C)(C)C2=CC=C(O2)C(C)(C)C2=CC=C1O2 | > 100 µM | – |
| CCC[CH2][Sn]([CH2]CCC)([S]C1=NCCS1)[S]C1=NCCS1 | 2.6 µM | 1.31 µM |
| CO[C@H](c1ccccc1)[C@H](O)[C@](O)(c1ccccc1)P(=O)(OC)OC | > 100 µM | – |
| CCNc1nc(N2CC(=O)Nc3cc(OC)ccc32)c2ccccc2n1 | > 100 µM | 0.000536 µM |
| CCOC(=O)/C=C1\Nc2ccccc2-n2nnnc21 | > 100 µM | – |
| O=C(C=Nc1ccccc1C(=O)[O-])c1cccs1.O=C(C=Nc1ccccc1C(=O)[O-])c1cccs1.[Cu+2] | > 100 µM | – |
| O=c1c2c3c(sc2nc2n1N=CN(c1ccc(Cl)cc1)C2)CCCC3 | > 100 µM | – |
| CC/C(=C(\CC)c1ccc(OCCN(CC)CC)cc1)c1ccc(OCCN(CC)CC)cc1 | 19.3 µM | 5.54 µM |
